Measurements taken from PubChem BioAssay AID1645887 (National Center for Advancing Translational Sciences (NCATS), 2021).
Values joined by “and” are separate entries in the source; they are usually repeats but may differ in a detail not shown here. Equal entries are not always repeated. Out of some 16,000 compounds screened, about 40 (0.2%) were called active. Not shown: some 1% with an inconclusive outcome. Calls follow the shape of the dose curve; as a rule, active = well fitted activation curve with a large enough effect; inconclusive = small, poorly fitted or top-dose-only effect, or another doubt; inactive = no such curve, though single readings can be large or run the other way. The list shows a part of the results.

molecular target: Rap guanine nucleotide exchange factor 4 (Homo sapiens) (UniProt Q8WZA2); test: Validation qHTS for agonist of cAMP-regulated guanine nucleotide exchange factor 4 (EPAC2); settings: EPAC2 Rap1B BODIPY-GDP exchange, fluorescence; activation: active compounds read high;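 also: exchange makes BODIPY-GDP fluorescence drop when released from Rap1B; series mostly up to about 150 µM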
UniProt Q8WZA2, sequence (Q8WZA2 whole entry, looked up): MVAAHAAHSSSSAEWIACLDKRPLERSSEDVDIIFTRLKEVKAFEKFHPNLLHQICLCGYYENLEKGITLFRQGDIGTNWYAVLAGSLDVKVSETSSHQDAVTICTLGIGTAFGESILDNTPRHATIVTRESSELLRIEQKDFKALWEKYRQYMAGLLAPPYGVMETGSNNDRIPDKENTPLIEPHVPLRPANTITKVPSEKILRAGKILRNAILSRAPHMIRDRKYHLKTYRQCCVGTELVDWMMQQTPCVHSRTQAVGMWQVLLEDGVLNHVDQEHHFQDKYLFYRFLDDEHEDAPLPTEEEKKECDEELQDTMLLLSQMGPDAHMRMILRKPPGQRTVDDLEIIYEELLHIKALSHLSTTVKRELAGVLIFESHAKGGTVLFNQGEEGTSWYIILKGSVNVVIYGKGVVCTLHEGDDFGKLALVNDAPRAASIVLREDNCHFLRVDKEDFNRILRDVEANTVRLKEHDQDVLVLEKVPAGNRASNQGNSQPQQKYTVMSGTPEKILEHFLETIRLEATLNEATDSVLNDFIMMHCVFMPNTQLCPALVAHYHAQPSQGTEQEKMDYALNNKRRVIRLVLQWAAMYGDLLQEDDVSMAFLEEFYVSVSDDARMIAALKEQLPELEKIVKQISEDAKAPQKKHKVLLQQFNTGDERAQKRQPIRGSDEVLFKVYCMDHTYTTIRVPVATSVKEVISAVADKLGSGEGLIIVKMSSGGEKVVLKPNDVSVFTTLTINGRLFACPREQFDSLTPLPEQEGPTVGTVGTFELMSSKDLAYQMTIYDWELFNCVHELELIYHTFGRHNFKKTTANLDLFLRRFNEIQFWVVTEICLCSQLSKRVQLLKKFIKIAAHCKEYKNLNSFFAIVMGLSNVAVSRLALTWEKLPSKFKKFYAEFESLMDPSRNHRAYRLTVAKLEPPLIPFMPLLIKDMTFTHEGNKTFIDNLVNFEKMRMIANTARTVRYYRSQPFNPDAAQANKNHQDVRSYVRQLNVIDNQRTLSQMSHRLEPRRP
Method in brief: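 Signal normalized against 6.5 mM cAMP as agonist control. Mix of EPAC2 (100 nM), RAP1B-BODIPY-GDP (250 nM) and GDP (50 uM) was read kinetically at 480/540 nm, every 5 min over 30 min, after 5 min room-temperature incubation with compound.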
% is scaled to controls: 0 for no effect and ±100 for the full control effect.

activation, inactive:
COc1ccc(-c2nc3cnc(Oc4cccc(Cl)c4)nc3n(C3CC3)c2=O)cc1 -12.2%
O=S(=O)(NCc1nc(N2CCCC2)c2cc(Cl)ccc2n1)c1ccccc1OC(F)(F)F -6.22%
Cc1cc(N(C)C)cc(C)c1C=O -20.6%
O=C1C[C@H]2C=CCc3cccc(c32)CN1Cc1ccc(Br)cc1 -4.69%
OCCCNCc1cc2ccc(F)cc2nc1N1CCN(c2cccc(Cl)c2)CC1 7.21%
CCN(CC)CCNC(=O)c1cc(Br)c(N)cc1OC 15.2%
Cc1ccc(Nc2nccc(N(C)c3ccc4c(C)n(C)nc4c3)n2)cc1S(N)(=O)=O 0.615%
O=C1CCN(CCc2ccccc2)CCN1[C@H](CSc1ccccc1)c1ccccc1 -31.2%
Cc1noc(C)c1C(=O)N1CCC2(CC1)CN(c1ncccn1)C2 -11.9%
COc1ccccc1CNc1ncnc2ccc(-c3ccc(N(C)C)cc3)cc12 -0.179%
CCc1ccc(/C=C2/SC(=S)NC2=O)cc1 -46.9%
CN=C1C=CC(=C(c2ccc(N(C)C)cc2)c2ccc(N(C)C)cc2)C=C1 -16.2%
O=C(NCC1Cc2cccc(-c3cccnc3)c2O1)c1cc(-c2ccccc2)n[nH]1 (stereo not given) 3.84%
OC(CCN1CCCCC1)(c1ccccc1)c1ccccc1 8.79% and -3.29%
CC(=O)[C@H]1[C@H](C#N)C[C@H]2[C@@H]3CC=C4C[C@@H](O)CC[C@]4(C)[C@H]3CC[C@@]21C 0.549%
CC(C)[C@H]1COCCS(=O)(=O)N1Cc1ccc(Cl)cc1 -35.8%
CCNc1ncc2nc(-c3cccs3)c(=O)n(Cc3cccs3)c2n1 3.08%
COc1cccc2c1CCC1CC(=O)CC[C@@]21C (stereo not given in full) -17.4%
O=c1[nH]cnc2[nH]cc(CN3CCCCC3)c12 -5.61%
Cn1ccc(C(=O)NCC2CCC3(CCN(Cc4ccc(F)cc4F)CC3)O2)n1 (stereo not given) -1.38%
CC(C)(Cc1c[nH]c2ccccc12)NCC(O)COc1ccccc1C#N (stereo not given) -4.99%
CCn1c(-c2cccnc2)nc2cc(NC(=O)COC)cc(C(=O)N3CCc4ccccc4C3)c21 -4.51%
O=C1c2cccc(O)c2C(=O)c2c(O)cccc21 -4.41% and -6.74%
COCCn1c(=O)c(-c2ccc(OC)cc2)nc2cnc(OCc3ccccc3)nc21 -3.47%
Cc1ncc2c(c1CNC(=O)c1cncs1)CCN(C(=O)c1csc(-c3cccs3)n1)C2 -2.6%
